# Measurements reported in ChEMBL document CHEMBL1157539, “Thousands of chemical starting points for antimalarial lead identification” (Nature, 2010).
# In all, about 13,000 compounds were measured (“IFI”: median about 4, highest 2% from about 17 on). Some of the results follow.
# Assay: GSK_TCMDC: Inhibition Frequency Index (IFI). The number of non-kinase HTS assays where a compound showed > 50 % inhibition, expressed as a percentage of the number of such assays in which the compound was tested (-0 is zero)
# Assay type: functional
row,SMILES,IFI
1,CCCCC(=O)Nc1nonc1-c1ccc(OCC)c(OCC)c1,-0%
2,CC(C)(C)c1ccc(CN2CCC(CNC(=O)c3cc(-c4cccc(Cl)c4)cs3)C2)cc1 (stereo not given),12.2%
3,CC(=O)Nc1nc(C(=O)Nc2cccc(-c3cccc(-c4nc5ccccc5[nH]4)c3)c2)cs1,3.48%
4,Cc1ccc2[nH]c(-c3ccc(C=CC(=O)NC4CCN(Cc5ccccc5)CC4)cc3)nc2c1,1.52%
5,CCCNCc1ccc(-c2ccc(CN(Cc3cnc(C)cn3)C(=O)c3nn(-c4ccccc4)nc3C)cc2)nc1,3.03%
6,CS(=O)(=O)CCNCc1cc(-c2cc3ncnc(Nc4ccc(OCc5cccc(F)c5)c(Cl)c4)c3s2)cs1,2.96%
7,NC1CCCN(Cc2cccc(-c3ccc(-c4nc5ccccc5[nH]4)cc3)c2)C1 (stereo not given),2.82%
8,N#CC(c1ccc(Cl)cc1)c1ccc2c(C(F)(F)F)cc(C(F)(F)F)nc2n1 (stereo not given),5.84%
9,COc1ccc(CNCc2cccc(-c3cccc(-c4nc5cc(C(F)(F)F)ccc5[nH]4)c3)c2)cc1,10.5%
10,CC(O)C1CCCCN1C(=O)c1cccc(-c2ccc(-c3nc4cc(F)ccc4[nH]3)cc2)c1 (stereo not given),8.57%
11,COc1cccc2c(O)c(CNC3CCCCC3)ccc12,7.52%
12,Cc1cc(Nc2ccncc2)n2nc(C)c(-c3ccccc3Cl)c2n1,2.04%
13,COc1ccc(CN(C)CCCSc2ccc(NC(=O)c3cccc4c(=O)cc(-c5ccccc5)[nH]c34)cc2)cc1OC,4.41%
14,COc1ccc(/C=C/C(=O)NCCCCCN2CCC(c3c[nH]c4ccccc34)CC2)cc1O,3.57%
15,Cc1ccc(CNC(=O)[C@H](CCCN)Nc2cc(C)nc(Nc3ccccc3)n2)cc1,7.5%
16,O=C(Nc1ccc(Cl)c(Cl)c1)N[C@H]1CCN(CCCCCNC(=O)C2CC2c2ccc(Cl)c(Cl)c2)C1 (stereo not given in full),16.2%
17,COc1ccc(CCn2c(=N)c(C(=O)NC3CCCC3)cc3c(=O)n4ccccc4nc32)cc1,2.56%
18,COc1ccc2ncc(F)c([C@H](O)CN3CCC(NCc4ccc5c(c4)NC(=O)CO5)CC3)c2c1,2.24%
19,COc1cc(C(=O)N2CCN(C(C)C)CC2)ccc1CN(C)CCCN1CCN(c2cccc(Cl)c2Cl)CC1,12.1%
20,O=C(NCC(c1ccc(C(F)(F)F)cc1)N1CCCC1)c1cc(-c2ccncc2)c(-c2cccc(O)c2)o1 (stereo not given),3.03%
21,N#Cc1ccc(C(=O)Nc2ccc(Cl)c(N3CCN(CCc4ccccc4)CC3)c2)cc1,1.28%
22,CCCCNc1nc(NCCCC)c2c(C)c(Cc3ccccc3)c(NCCCC)nc2n1,16.1%
23,N=C(N)NCCCN(Cc1ccccc1)c1ccc(Cl)cc1,1.48%

row,SMILES,IFI
1,COc1ccc2nc(-c3ccc(C(=O)NCCCN4CCN(c5cc(Cl)ccc5OC)CC4)cc3)[nH]c2c1,3.73%
2,CCCN(CC1CC1)c1nc(C)nc2c(-c3ccccc3)cc(C)cc12,14.3%
3,CCOc1ccc(-c2nonc2NC(=O)c2ccco2)cc1OCC,-0%
4,C=CCn1ccc2c3c(N)nc(N)nc3ccc21,6.4%
5,O=C(COc1ccc(F)cc1)NC1CCN(c2ccnc3cc(Cl)ccc23)C1 (stereo not given),3.13%
6,Cc1cccc2nc(-c3ccc(-c4cccc(CN5CCN(c6ccncc6)CC5)c4)cc3)[nH]c12,10.7%
7,CCc1nc2nc(C)cc(Nc3cc(C)cc(C)c3)n2n1,1.02%
8,CCOc1cc(C=NNc2nc(C)cc(-n3nc(C)cc3C)n2)ccc1O,5.67%
9,O=C(NC(=O)c1ccccc1)NC1CCN(c2ccnc3cc(Cl)ccc23)C1 (stereo not given),6.15%
10,COc1cc(SC)ccc1C(=O)N1CC(C)CC(C)C1 (stereo not given),0.71%
11,Cc1[nH]c(C)c(-c2ccc(Oc3ccc(F)cc3)cc2)c(=O)c1Cl,6.25%
12,O=C(Cc1ccc(NC(=O)c2ccc(O)c(-c3cccc([N+](=O)[O-])c3)c2)cc1)NCCN1CCCCC1,1.4%
13,COc1cc(OC)cc(-c2nn(-c3ccc([N+](=O)[O-])cc3C#N)c(=S)n2CC2CCCO2)c1 (stereo not given),2.08%
14,COc1ccc2nccc([C@@H](O)CN3CCC(NC(=O)Cc4ccc(Br)c5ccccc45)CC3)c2c1,-0%
15,COCCNC(=O)c1ccc(OC2CCN(Cc3ccc(F)c(F)c3)CC2)c(Cl)c1,-0%
16,CCCCc1cc(NCc2ccncc2)nc(Nc2ccccc2)n1,1.45%
17,CCCCc1cc(NCc2ccncc2)nc(Nc2ccc(C)cc2)n1,5.8%
18,CCN(CC)CCN(Cc1ccc(-c2ccc(C(F)(F)F)cc2)cc1)C(=O)Cn1c(CCc2ccc(F)cc2)nc(=O)c2sccc21,10.6%
19,CCOC(=O)c1ccc(NC(=O)Nc2cccc(-c3ccc(-c4nc5cc(F)ccc5[nH]4)cc3)c2)cc1,-0%
20,COc1ccc2nccc(N/N=C/c3ccccc3[N+](=O)[O-])c2c1,5.71%
21,CCCC/C=C(\Cl)c1ccc(O)c2c1C[C@H]1C[C@H]3[C@H](N(C)C)C(O)=C(C(N)=O)C(=O)[C@@]3(O)C(O)=C1C2=O,6.82%
22,Cc1cccc2nc(-c3cccc(-c4ccc(CNCc5cccc(N)c5)cc4)c3)[nH]c12,7.62%
